The values below come from patent publication US20250304706A1 (Astellas, published 2025).

For the test, the target named is T1, CD3εδ complex protein (human; alpaca, UniProt P07766 23-126; P04234 22-105).
T1 construct: they are not part of the secreted protein; also called human CD3; CD386 complex protein
The test can be described thus: ELISA, CD3 complex immobilized. As to the method: Binding activities of the anti-TSPAN8/anti-CD3 bispecific antibodies BTE-0001 to BTE-0067 to CD3 were evaluated by the ELISA. ELISA was performed according to a conventional method. The […] complex protein obtained in Example 1-3 was immobilized on a plate. BTE-0001 to BTE-0067 were used as the test antibodies. As a secondary antibody, Goat anti-Human IgG Fc, Multi-Species SP ads-HRP (2014-05, available from SouthernBiotech) was used. TMB+Substrate-Chromogen (S1599, available from Dako) was used as the detection reagent. Infinite M200pro (available from Tecan) was used to measure the absorbance. The EC50 values were calculated using variable slope model (four parameters) in GraphPad Prism with the maximum value in the same plate fixed at the top and the minimum value in the blank in the same plate fixed at the bottom. Since BTE-0001 was always measured in each plate as a control, only the EC50 value of BTE-0001 was expressed as the average value of a plurality of plates.
Background: In an ELISA, binding on a coated surface is turned into a signal by an enzyme label.

Where a chain is given by its changes, count along the chain named.

Sequence of UniProt P07766 (P07766 23-126 limits assumed, stated change not applied, form in doubt, chain 1 of 2): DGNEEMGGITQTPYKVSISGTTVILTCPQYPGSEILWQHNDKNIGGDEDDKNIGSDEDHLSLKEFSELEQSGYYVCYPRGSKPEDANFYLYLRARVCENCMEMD
Sequence of UniProt P07766 (P04234 22-105 limits assumed, stated change not applied, form in doubt, chain 2 of 2, further chain): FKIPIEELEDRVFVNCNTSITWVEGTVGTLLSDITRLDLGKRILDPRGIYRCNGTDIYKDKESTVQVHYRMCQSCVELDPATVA

B1: BTE-0034 (bispecific antibody, human IgG1, kappa, L234A L235A, N297G)
heavy: QVQLVESGGGVVQPGGSLRLSCAASGFTFSSYGMHWVRQAPGKGLEWVAVIWYDGRNKYYADSVKGRFTISRDNSKNTLYLQMNSLRAEDTAVYYCTRDHSGSGSYYIDYWGQGTLVTVSSASTKGPSVFPLAPSSKSTSGGTAALGCLVKDYFPEPVTVSWNSGALTSGVHTFPAVLQSSGLYSLSSVVTVPSSSLGTQTYICNVNHKPSNTKVDKKVEPKSCDKTHTCPPCPAPEAAGGPSVFLFPPKPKDTLMISRTPEVTCVVVDVSHEDPEVKFNWYVDGVEVHNAKTKPREEQYGSTYRVVSVLTVLHQDWLNGKEYKCKVSNKALPAPIEKTISKAKGQPREPQVYTLPPSRDELTKNQVSLSCAVKGFYPSDIAVEWESNGQPENNYKTTPPVLDSDGSFFLVSKLTVDKSRWQQGNVFSCSVMHEALHNHYTQKSLSLSPGK
light: EIAMTQSPATLSVSPGERATLSCRASQSVSSNLAWYQQKPGQAPRLLIYGASTRATGLPARFSGSGSGTEFTLTISSLQSEDFAVYYCQQYNNFWTFGQGTKVEIKRTVAAPSVFIFPPSDEQLKSGTASVVCLLNNFYPREAKVQWKVDNALQSGNSQESVTEQDSKDSTYSLSSTLTLSKADYEKHKVYACEVTHQGLSSPVTKSFNRGEC
scFv-Fc: EVQLVESGGGLIQPGGSLRLSCAASGFTFNTYAMNWVRQAPGKGLEWVARIRSKYNNYATYYADSVKDRFTISRDDSKSTLYLQMNNLRAEDTAVYYCVRHGNFGNDYVSWFAYWGQGTLVTVSSGKPGSGKPGSGKPGSGKPGSQAVVTQEPSLTVSPGGTVTLTCRSSTGAVTTSNYANWVQQKPGQAPRGLIGGTNKRAPGTPARFSGSLLGDKAALTLSGAQPEDEAEYYCALWYSNLWVFGGGTKVTVL[human IgG1 Fc with C220S L234A L235A N297G T366W (EU numbers) cut from this listing]
notes: variant of BTE-0001
In turn, B1 showed an EC50 of 0.0471 µg/mL.

B2: BTE-0021 (bispecific antibody)
chain 1: B1 heavy
chain 2: B1 light
chain 3: B1 scFv-Fc with Y61I, D107S
The molecule B2 gave an EC50 of 0.0387 µg/mL.

B3: BTE-0020 (bispecific antibody)
chain 1: B1 heavy
chain 2: B1 light
chain 3: B1 scFv-Fc with Y61D, D107S
As to B3, the EC50 is 1.26 µg/mL.

B4: BTE-0016 (bispecific antibody)
chain 1: B1 heavy
chain 2: B1 light
chain 3: B1 scFv-Fc with Y55F, D107S
In the case of B4, it took 0.0042 µg/mL to reach a half-maximal effect (EC50).

B5: BTE-0025 (bispecific antibody)
chain 1: B1 heavy
chain 2: B1 light
chain 3: B1 scFv-Fc with Y61S, D107S
With B5, the midpoint of the response, the EC50, lay at 0.0494 µg/mL.

B6: BTE-0024 (bispecific antibody)
chain 1: B1 heavy
chain 2: B1 light
chain 3: B1 scFv-Fc with Y61R, D107S
In turn, B6 registered an EC50 of 0.0412 µg/mL.

B7: BTE-0026 (bispecific antibody)
chain 1: B1 heavy
chain 2: B1 light
chain 3: B1 scFv-Fc with Y61T, D107S
In turn, B7 gave an EC50 of 0.0459 µg/mL.

B8: BTE-0032 (bispecific antibody)
chain 1: B1 heavy
chain 2: B1 light
chain 3: B1 scFv-Fc with D107P
In turn, B8 yielded an EC50 of 0.255 µg/mL.

B9: BTE-0015 (bispecific antibody)
chain 1: B1 heavy
chain 2: B1 light
chain 3: B1 scFv-Fc with Y55A, D107S
The molecule B9 yielded an EC50 of 0.0176 µg/mL.

B10: BTE-0031 (bispecific antibody)
chain 1: B1 heavy
chain 2: B1 light
chain 3: B1 scFv-Fc with D107E
B10: a half-maximal effect (EC50) was put at 0.0174 µg/mL.

B11: BTE-0028 (bispecific antibody)
chain 1: B1 heavy
chain 2: B1 light
chain 3: B1 scFv-Fc with D76N, D107S
B11: the midpoint of the response, the EC50, lay at 0.38 µg/mL.

B12: BTE-0003 (bispecific antibody)
chain 1: B1 heavy
chain 2: B1 light
chain 3: B1 scFv-Fc with T31G, D107S
Take B12: the EC50 was found to be 0.00767 µg/mL.

B13: BTE-0023 (bispecific antibody)
chain 1: B1 heavy
chain 2: B1 light
chain 3: B1 scFv-Fc with Y61N, D107S
The molecule B13 had an EC50 of 0.208 µg/mL.

B14: BTE-0017 (bispecific antibody)
chain 1: B1 heavy
chain 2: B1 light
chain 3: B1 scFv-Fc with Y55A, N57S, D107S
The molecule B14 had an EC50 of 0.03 µg/mL.

B15: BTE-0022 (bispecific antibody)
chain 1: B1 heavy
chain 2: B1 light
chain 3: B1 scFv-Fc with Y61K, D107S
B15 returned an EC50 of 0.0462 µg/mL.

B16: BTE-0018 (bispecific antibody)
chain 1: B1 heavy
chain 2: B1 light
chain 3: B1 scFv-Fc with Y61A, D107S
On to B16, for which the EC50 was determined as 0.0613 µg/mL.

B17: BTE-0010 (bispecific antibody)
chain 1: B1 heavy
chain 2: B1 light
chain 3: B1 scFv-Fc with N35D, D107S
Consider B17, for which the EC50 came out at 2.04 µg/mL.

B18: BTE-0019 (bispecific antibody)
chain 1: B1 heavy
chain 2: B1 light
chain 3: B1 scFv-Fc with Y61E, D107S
In turn, B18 came in with an EC50 of 0.577 µg/mL.

B19: BTE-0029 (bispecific antibody)
chain 1: B1 heavy
chain 2: B1 light
chain 3: B1 scFv-Fc with D76E, D107S
B19 gave an EC50 of 0.0802 µg/mL.

B20: BTE-0012 (bispecific antibody)
chain 1: B1 heavy
chain 2: B1 light
chain 3: B1 scFv-Fc with N35G, D107S
With B20, the midpoint of the response, the EC50, lay at 0.993 µg/mL.

B21: BTE-0011 (bispecific antibody)
chain 1: B1 heavy
chain 2: B1 light
chain 3: B1 scFv-Fc with N35A, D107S
B21 came in with an EC50 of 0.378 µg/mL.

B22: BTE-0027 (bispecific antibody)
chain 1: B1 heavy
chain 2: B1 light
chain 3: B1 scFv-Fc with D76T, D107S
Take B22: the EC50 stood at 2.95 µg/mL.

B23: BTE-0048 (bispecific antibody, human IgG1, kappa, L234A L235A, N297G)
heavy: B1 heavy
light: B1 light
scFv-Fc: B1 scFv-Fc with D107S, A113D
notes: variant of BTE-0001
B23 yielded an EC50 of 0.142 µg/mL.

As a reminder, the EC50 is the concentration that produces a half-maximal response. Read a low EC50 as higher potency in that assay.
